In patent EP4674438A1, “ANTIBODY-DRUG CONJUGATE CONTAINING ANTI-CD138 ANTIBODY” (priority 2023, dated 2024):
Substitutions are numbered along the chain they refer to.

What was measured:
[1] = tested on: pancreatic cancer cell line (Capan-1); assay: Anti-tumor effects of ADC in vivo, Capan-1 cancer-carrying nude mice (Example 8); details: 1 mg/kg intravenously once a week; compared with the control group; Figure 5 A
Description: Cancer-carrying animal models were prepared using the cells of the pancreatic cancer cell line (Capan-1). At the outset, the cells were prepared and inoculated subcutaneously into the right chest of nude mice (1 × 10^7 cells/100 μl). When the volume of the inoculated tumor was increased to approximately 100 to 200 mm^3, the nude mice were randomly divided into a control group (PBS administration) and test groups, and […]13, and ADC14 were injected intravenously thereinto at 1 mg/kg. Administration was performed once a week. The tumor volume was measured two times a week, and the tumor volume was calculated in accordance with the equation indicated below: Tumor volume (mm^3) = (longaxis×shortaxis^2)/2 [formula]

[2] = tested on: human T cell leukemia Jurkat (CD138-negative); assay: Cytotoxicity mediated by ADC, CellTiter-Glo 2.0 luminescent cell viability assay, Jurkat (Example 6); type: cell-based; details: 37°C, 5 days
Description: ADC1 to ADC14 were prepared in accordance with the procedure described in Example 4, and the cytotoxicity thereof against the pancreatic cancer cell line Capan-1 and the human T cell leukemia Jurkat was evaluated by the CellTiter-Glo 2.0 luminescent cell viability assay (Promega). The cells were seeded at 1,000 cells/well on a 96-well plate, the ADCs were added, and culture was then performed at 37°C for 5 days. Thereafter, the reagent for CellTiter-Glo 2.0 luminescent cell viability assay was added. The relative luminescence was measured using the EnSpire Multimode Plate Reader (PerkinElmer), the data were analyzed using the XLfit software (IDBS), and IC50 for each cancer cell line was determined (Table 6). […] Such cytotoxicity is considered to be induced by the antigen-independent mechanism. […]

[3] = ADC stability: denaturation midpoint and aggregation initiation temperature (UNcle); type: physicochemical; details: Dulbecco's PBS pH 7.4, n = 3; for Denaturation midpoint temperature Tm2: 25°C to 95°C by 1°C every minute; for Aggregation initiation temperature Tagg266: static light scatter at 266 nm
Description: The concentration of ADC15 was adjusted to approximately 2.71 mg/ml with phosphate-buffered saline (Dulbecco's PBS; pH 7.4), that of ADC16 was adjusted to 7.91 mg/ml therewith, and that of ADC17 was adjusted to 5.61 mg/ml therewith. The denaturation midpoint temperature, the aggregation initiation temperature, and the particle size distribution of the antibody solutions were determined using a protein physical property evaluator UNcle (UNCHAINED LABS). Specifically, the denaturation midpoint temperature and the aggregation initiation temperature were determined by simultaneously performing fluorescent spectral measurement and static light scatter measurement while raising the temperature of the antibodies from 25°C to 95°C by 1°C every minute. On the basis of the results of the fluorescent spectral measurement, the midpoint temperature of peak shift; i.e., the denaturation midpoint temperature, was determined (n = 3) using the phenomenon that the peak center of the fluorescent spectra of amino acids internalized in the antibody would shift upon antibody denaturation. On the basis of the results of the static light scatter measurement, the temperature at which the scattered light at 266 nm becomes intensified; i.e., the aggregation initiation temperature, was determined (n = 3) using the phenomenon that the scattering intensity would be increased upon aggregation.

[4] = ADC stability: aggregation on storage at 50°C, dynamic light scattering; type: physicochemical; details: storage at 50°C for 48 hours, Dulbecco's PBS pH 7.4; n = 3
Description: With the use of ADC15 (2.71 mg/ml), ADC16 (7.91 mg/ml), and ADC17 (5.61 mg/ml) prepared with phosphate-buffered saline (Dulbecco's PBS; pH 7.4), the molecular size was measured every 30 minutes with the elapse of time by dynamic light scattering measurement under storage conditions at 50°C for 48 hours, and a difference between the initial average molecular size and the average molecular size 48 hours after the initiation of the measurement was determined to evaluate the aggregation properties (n = 3).

[5] = tested on: pancreatic cancer cell line BxPC-3 (CD138-positive); assay: Cytotoxicity mediated by ADC, CellTiter-Glo 2.0 luminescent cell viability assay, BxPC-3; type: cell-based; details: result in words
Description: (§1) The cytotoxicity of ADC15, ADC16, and ADC17 against the pancreatic cancer cell line BxPC-3 and the human T cell leukemia cell line Jurkat was evaluated by the CellTiter-Glo 2.0 luminescent cell viability assay (Promega). The BxPC-3 cells and the Jurkat cells were seeded at 350 cells/well and 150 cells/well, respectively, on a 384-well plate, ADC16 and ADC17 were added, and culture was performed at 37°C for 5 days. Thereafter, the reagent for CellTiter-Glo 2.0 luminescent cell viability assay was added. The relative luminescence was measured using the EnSpire Multimode Plate Reader (PerkinElmer), the data were analyzed using the 4 Parameter Logistic Model, and IC50 for each cancer cell line was determined. […] The antibody, the linker, and the payload of ADC16 are common with those of ADC17, although the number of drugs bound to an antibody molecule is different (ADC16: 3.78, ADC17: 7.91). ADC16 and ADC17 are considered to maintain the antigen-dependent cytotoxicity.

[6] = tested on: human T cell leukemia cell line Jurkat (CD138-negative); assay: Cytotoxicity mediated by ADC, CellTiter-Glo 2.0 luminescent cell viability assay, Jurkat (Example 9); type: cell-based; details: for IC50: Jurkat (CD138-negative), 37°C, 5 days; for cytotoxicity against the CD138-negative Jurkat cells: result in words
Description: as §1

B1: ADC12 (conjugate)
heavy: QVQLVQSGAEVKKPGSSVKVSCKASGYTFSNYWIEWVRQAPGQGLEWIGEILPGTGRTIYNEKFKGRATFTADISTSTAYMELSSLRSEDTAVYYCARRDYYGNFYYAMDYWGQGTLVTVSS[human IgG1 constant region not spelt out]
light: DIQMTQSPSSLSASVGDRVTITCSASQGINNYLNWYQQKPGKAPKLLIYYTSTLQSGVPSRFSGSGSGTDYTLTISSLQPEDFATYYCQQYSKLPRTFGGGTKVEIKRTVAAPSVFIFPPSDEQLKSGTASVVCLLNNFYPREAKVQWKVDNALQSGNSQESVTEQDSKDSTYSLSSTLTLSKADYEKHKVYACEVTHQGLSSPVTKSFNRGEC
In the case of B1, the “tumor growth / anti-tumor effects” value [1] is reported as “equivalent anti-tumor effects” and the IC50 [2] is reported as 4.028 µg/mL.

B2: ADC13 (conjugate)
heavy: B1 heavy with A68V
light: B1 light
In the case of B2, the “tumor growth / anti-tumor effects” value [1] is reported as “equivalent anti-tumor effects” and the IC50 [2] is reported as 4.377 µg/mL.

B3: ADC14 (conjugate)
heavy: B1 heavy with A68V, I74E
light: B1 light
In the case of B3, the “tumor growth / anti-tumor effects” value [1] is reported as “equivalent anti-tumor effects” and the IC50 [2] is reported as 4.761 µg/mL.

B4: ADC16 (conjugate)
heavy: B1 heavy
light: B1 light
In the case of B4, the “Denaturation midpoint temperature Tm2” value [3] is reported as 84.0 °C, the “Aggregation initiation temperature Tagg266” value [3] is reported as 75.3 °C and the “Increase in average molecular size” value [4] is reported as 5.7 nm. The “cytotoxicity against the CD138-positive BxPC-3 cells” value [5] was “exerted the cytotoxicity”, the IC50 [6] was >8 µg/mL and the “cytotoxicity against the CD138-negative Jurkat cells” value [6] was “did not exert the cytotoxicity”.

B5: ADC17 (conjugate)
heavy: B1 heavy
light: B1 light
With B5 the “Denaturation midpoint temperature Tm2” value [3] was 82.8 °C, the “Aggregation initiation temperature Tagg266” value [3] was 75.7 °C and the “Increase in average molecular size” value [4] was 3.2 nm. The “cytotoxicity against the CD138-positive BxPC-3 cells” value [5] was “exerted the cytotoxicity”, the IC50 [6] was 2.791 µg/mL and the “cytotoxicity against the CD138-negative Jurkat cells” value [6] was “did not exert the cytotoxicity”.

B6: ADC8 (conjugate)
heavy: QVQLVQSGAEVKKPGSSVKVSCKASGYTFSNYWIEWVRQAPGQGLEWIGEILPGTGRTIYNEKFKGRATFTADISTSTAYMELSSLRSEDTAVYYCARRDYYGNFYYAMDYWGQGTLVTVSSASTKGPSVFPLAPSSKSTSGGTAALGCLVKDYFPEPVTVSWNSGALTSGVHTFPAVLQSSGLYSLSSVVTVPSSSLGTQTYICNVNHKPSNTKVDKKV[human IgG1 Fc with changes not spelt out]
light: B1 light
With B6 the IC50 [2] was 3.124 µg/mL.

B7: ADC9 (conjugate)
heavy: QVQLVQSGAEVKKPGSSVKVSCKASGYTFSNYWIEWVRQAPGQGLEWIGEILPGTGRTIYNEKFKGRVTFTADISTSTAYMELSSLRSEDTAVYYCARRDYYGNFYYAMDYWGQGTLVTVSSASTKGPSVFPLAPSSKSTSGGTAALGCLVKDYFPEPVTVSWNSGALTSGVHTFPAVLQSSGLYSLSSVVTVPSSSLGTQTYICNVNHKPSNTKVDKKV[human IgG1 Fc with changes not spelt out]
light: B1 light
With B7 the IC50 [2] was 3.26 µg/mL.

B8: ADC10 (conjugate)
heavy: QVQLVQSGAEVKKPGSSVKVSCKASGYTFSNYWIEWVRQAPGQGLEWIGEILPGTGRTIYNEKFKGRATFTADESTSTAYMELSSLRSEDTAVYYCARRDYYGNFYYAMDYWGQGTLVTVSSASTKGPSVFPLAPSSKSTSGGTAALGCLVKDYFPEPVTVSWNSGALTSGVHTFPAVLQSSGLYSLSSVVTVPSSSLGTQTYICNVNHKPSNTKVDKKV[human IgG1 Fc with changes not spelt out]
light: B1 light
Molecule B8 has an IC50 [2] of 3.674 µg/mL.

B9: ADC11 (conjugate)
heavy: QVQLVQSGAEVKKPGSSVKVSCKASGYTFSNYWIEWVRQAPGQGLEWIGEILPGTGRTIYNEKFKGRVTFTADESTSTAYMELSSLRSEDTAVYYCARRDYYGNFYYAMDYWGQGTLVTVSSASTKGPSVFPLAPSSKSTSGGTAALGCLVKDYFPEPVTVSWNSGALTSGVHTFPAVLQSSGLYSLSSVVTVPSSSLGTQTYICNVNHKPSNTKVDKKV[human IgG1 Fc with changes not spelt out]
light: B1 light
With B9 the IC50 [2] was 3.592 µg/mL.
